Some of the results follow.

For 14 molecules, binding signal results are on record in publication PMC12136788.

To fix the notation:
T1: UNK ZnF1-3 (human, UniProt Q9C0B0 31-174)
T1 sequence: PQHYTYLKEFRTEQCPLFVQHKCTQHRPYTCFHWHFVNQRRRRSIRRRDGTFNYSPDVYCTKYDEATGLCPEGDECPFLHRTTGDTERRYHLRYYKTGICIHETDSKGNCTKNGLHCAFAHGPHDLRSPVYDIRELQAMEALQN

B1: 226576444_226578218_713_3pUTR_ENSG00000143799_ENST00000366794|human|control|control (ssRNA)
RNA: GGGAGUUCUACAGUCCGACGAUCCCUUUUCUCUUUCCUUCACUCUUGACUCCUGGGAGCUGCUUCUUCAGGGCUUCUUUAUCCUCUGUAGCAAGGAGGCUGAAGCCCUUGAGCUGACUCGCACUGUACUCGGGCCGGAAACCCCAACAGAGGAUUGAGCAUCA
B2: 4614467_4615035_692_5pUTR_ENSMUSG00000045045_ENSMUST00000113822|mouse|control|control (ssRNA)
RNA: GGGAGUUCUACAGUCCGACGAUCCACUGGCCAGCAGCAGCAAUAGGAGCGGCGGGGCCAUGGUGAGUGCCCUGGUGUCCGUCGCUCAGGGGGCGCGGGCUGGCCUCCCCGCGGACCCAGCCGGCCCCUGCCGACUCCAGGCCGCAACAGAGGAUUGAGCAUCA
B3: chr11:10819154:10819155:-_ENSG00000110321_ENST00000525681|hu_hu|motif|central (ssRNA)
RNA: GGGAGUUCUACAGUCCGACGAUCCUUAUGAUGUAAUUAUUGCAUGCUGCUAAUAUACUAUCUAAACAUUAAAGAUACUCCGGAAAUAUUUGAUGGUAGACUAUGAUUAAGACAUUACACUACAAAAAAACCUUAUGCAGAAGGCAACAGAGGAUUGAGCAUCA
B4: chr2:149803492:149803493:+_ENSG00000168280_ENST00000414838|hu_mus|FALSE|FALSE (ssRNA)
RNA: GGGAGUUCUACAGUCCGACGAUCGGUUUUGCUGACCUUUUCACUCCCAGCCAAAUCAACCAAAUACAGCUUCCCGCUGAGUUUUUUUUCAGUCUCCACAUUCUCUUGCUUAAUGUUAAUCAGGAAGAUACUGUGACUCCUAGACAACAGAGGAUUGAGCAUCA
B5: chr8:141525804:141525805:+_ENSG00000104472_ENST00000220913|hu_hu|FALSE|FALSE (ssRNA)
RNA: GGGAGUUCUACAGUCCGACGAUCGUAGAAAAAUAUCUGAACAGUCAACUUUUCUUAAGACAAAAAUUCAAAUGUAACAUACUACCUAAACUAUAAAUUUAGCUAAAACUGAAUCGAGCUGUUUAUAAGAACUGAUUCCAAAAUCAACAGAGGAUUGAGCAUCA
B6: chr3:179287964:179287965:+_ENSG00000136518_ENST00000429709|hu_hu|hu_hu_hu_mus_True|1_8 (ssRNA)
RNA: GGGAGUUCUACAGUCCGACGAUCCUUGAGUGGUGAGAUGGCCUCCAUGUUCUCCCUGGGCACGCGGAGGGCAUUGGUGUCUAUGUAGUAGGUGGGCCCGCCCUGCUUGCCUUUGUCACCAUCAAUCUCCAUUAAUGUGCUUCCCAACAGAGGAUUGAGCAUCA
B7: chr3:102833055:102833056:+_ENSMUSG00000068823_ENSMUST00000029446|mus_hu|FALSE|FALSE (ssRNA)
RNA: GGGAGUUCUACAGUCCGACGAUCUUCAGUAGUAUUUGCUGAUUCUUCUUUUUCAGCACACGUUUCAAAGGAUGAAAGUUGCUAGUAUUAAAAAAAAGAGCGAGAGAAAAUGAUCUACCAAGCUAAUAAAGAAUACAACUGCUGCAACAGAGGAUUGAGCAUCA
B8: chr13:40293908:40293909:+_ENSG00000133103_ENST00000455146|hu_hu|FALSE|FALSE (ssRNA)
RNA: GGGAGUUCUACAGUCCGACGAUCUGCUUCGAUCUGAAACUGUAGCAUUUCCAGACGUCUGUCAGUGAAUUCAAAUAGAGCUAAUGUUGUCUUCAUCAUAUAUAGUGAAUUGACCAUGAAAGUGGCCAUGUCAGCUGUGCCUAACAACAGAGGAUUGAGCAUCA
B9: chr6:86333760:86333761:-_ENSG00000135316_ENST00000355238|hu_mus|hu_hu_hu_mus_True|28_28 (ssRNA)
RNA: GGGAGUUCUACAGUCCGACGAUCUUCCUCAAGAAUCUGCUCCUUGGUUUUACUCUUAGGAAUCGAGCCCACAAAAAGCCUAUUGUUGGCAACUGAGAUGCAGACACCAAUAUGUUUCCCGGAACGAAUUUCAUGAUUAUUAUACAACAGAGGAUUGAGCAUCA
B10: 79205409_79207752_2771_CDS_ENSMUSG00000039414_ENSMUST00000097281|mouse|control|control (ssRNA)
RNA: GGGAGUUCUACAGUCCGACGAUCACCAGUCCUGGACACGACAUCUCGAGCUGACUUCAACUUGUCAAAGCUGUAUUGGGCCAUUCGGGCAAUGAAAGAGGCUUCUCCCACCACCUGAGCCAUUCUUCCAAGGGCUUCCCCUGCCAACAGAGGAUUGAGCAUCA
B11: chr15:72338896:72338897:-_ENSG00000066933_ENST00000356056|hu_hu|FALSE|FALSE (ssRNA)
RNA: GGGAGUUCUACAGUCCGACGAUCGAUAUAUCCGUAAUGUAUGUUCAUUAUCUUCAAAGCGUCGUCUUCCUCCAUCAUUUAUAUUCAUAUUGGAUCCUGUCCCAUCAGCAUGGAUAGUAUAUGUUCAAAGUCGUGCAAACCAUUCAACAGAGGAUUGAGCAUCA
B12: chr1:63024871:63024872:-_ENSG00000116641_ENST00000251157|hu_hu|FALSE|FALSE (ssRNA)
RNA: GGGAGUUCUACAGUCCGACGAUCGUCCCCAAUUCGGACUGGGAACAGGUGUUCAUCCAGAGCAUUGACCAGAGCAAAAAAUUUGUCAAGAUAAGGAUCUUGUGUAUGGAUAGACGAAACAGCAACAACUUCAACAUUAAAAACCAACAGAGGAUUGAGCAUCA
B13: chr4:144460044:144460045:+_ENSG00000153147_ENST00000283131|hu_hu|FALSE|FALSE (ssRNA)
RNA: GGGAGUUCUACAGUCCGACGAUCUCGGUCCAUAGCCUGAAGAUCUACUUGGGGAUUCCAAUCAGAAUCAUACAAAAUUACUACAUCAGCAGUCGCAAGAUUGAUGCCAAGACCACCAGCACGCGUGCUUAACAUGAAAACAAACAACAGAGGAUUGAGCAUCA
B14: chr12:42180722:42180723:-_ENSMUSG00000036295_ENSMUST00000043884|mus_hu|mus_mus_mus_hu_True|18_48 (ssRNA)
RNA: GGGAGUUCUACAGUCCGACGAUCCUGUAGGAGAAGAAUCUGUGUGUUAGCUGGCAAUCUGGCUGGGAAAGUUAAAAGACCUAAAUCAUUACAGUCCACUGUAGAUGCUUCCAUAUAGAUGGAUCUCGGUGUAAACCAAGGCCUCAACAGAGGAUUGAGCAUCA

In this assay the target is T1, UNK ZnF1-3. Description: nsRBNS (natural sequence RNA bind-n-seq); RBNS binding buffer (assumed for nsRBNS): 25 mM Tris pH 7.5, 150 mM KCl, 3 mM MgCl2, 0.01% Triton X-100, 500 ug/ml BSA, 20 U/ml SUPERase-In, 4 C; UNK is unkempt and MSI1 is Musashi-1; names of the RNAs are library labels; protein concentration not given here; high values mean tight binding.
On to B1, for which the binding signal worked out at 0.63 enrichment R.

B2 came in with a binding signal of 0.84 enrichment R.

Turning to B3, the binding signal was determined as 1.08 enrichment R.

With B4, the binding signal came to 0.719 enrichment R.

Molecule B5 had a binding signal of 0.907 enrichment R.

B6 yielded a binding signal of 0.627 enrichment R.

As to B7, the binding signal was determined as 1.25 enrichment R.

In turn, B8 showed a binding signal of 1.07 enrichment R.

Molecule B9 gave a binding signal of 1.3 enrichment R.

B10 yielded a binding signal of 0.86 enrichment R.

Regarding B11, the binding signal stood at 1.09 enrichment R.

In the case of B12, the binding signal is 1.94 enrichment R.

Molecule B13 gave a binding signal of 1.41 enrichment R.

For the molecule B14, the binding signal was found to be 0.961 enrichment R.
